Experimental data from US8518997B2, “4-(phenoxyalkyl)thio)-phenoxyacetic acids and analogs” (Janssen Pharmaceutica N.V., priority 2003, dated 2013).
Certain results were filed several times, with different values. This list holds those alone. An entry can have further records. Values given together seem to repeat one measurement; a mean can stand among them. Brackets with × stand for listed records that agree.

Molecular target: T1, PPAR delta (Homo sapiens, UniProt Q03181)
T1 sequence (Q03181 171-441 limits assumed): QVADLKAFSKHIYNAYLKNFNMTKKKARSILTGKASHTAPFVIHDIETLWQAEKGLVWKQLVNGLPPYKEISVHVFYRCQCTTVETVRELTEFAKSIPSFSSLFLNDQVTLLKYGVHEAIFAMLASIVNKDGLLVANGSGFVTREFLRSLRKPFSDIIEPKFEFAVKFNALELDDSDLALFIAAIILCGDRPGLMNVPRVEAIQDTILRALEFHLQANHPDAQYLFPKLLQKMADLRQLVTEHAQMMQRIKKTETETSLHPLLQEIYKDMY
Assay: Transfection assay for PPAR receptors (PPAR-Gal4 / Gal4-Luciferase reporter in HEK293 cells)
Type: cell-based
Settings: HEK293 cells co-transfected with PPAR-Gal4 (δ) receptor and Gal4-Luciferase reporter, 24 hours; multiple EC50's = multiple measurements; Table 2
Method: Transfection Assay Method for PPAR Receptors
HEK293 cells were grown in DMEM/F-12 Media supplemented with 10% FBS and glutamine (GIBCOBRL). The cells were co-transfected with DNA for PPAR-Gal4 (PPARα, γ or δ) receptor and Gal4-Luciferase Reporter using the DMRIE-C Reagent. On the following day, the medium was replaced with 5% Charcoal treated FBS growth medium. After six hours, cells were trypsinized and seeded at a density of 50,000 cell/well into 96 well plates and incubated overnight at 37° C. in a 5% CO2 incubator. Cells were then treated with test compounds or vehicle and incubated for 24 hours at 37° C. in a 5% CO2 incubator. Luciferase activity was assayed using the Steady-Glo Luciferase Assay Kit from Promega. […] Steady-Glo Luciferase Assay Kit was purchased from Promega Part# E254B.

Row | Compound | EC50
1 | CC[C@H](COc1ccc(C(F)(F)F)cc1)CSc1ccc(OCC(=O)O)c(C)c1 [Compound 2, {2-Methyl-4-[2-(4-trifluoromethyl-phenoxymethyl)-butylsulfanyl]-phenoxy}-acetic acid] | 0.02, 0.33, 0.03, 0.47, 1.5 nM [one cell]
2 | CCCC(COc1ccc(C(F)(F)F)cc1)CSc1ccc(OCC(=O)O)c(C)c1 (centres unmarked) [Compound 5, {2-Methyl-4-[2-(4-trifluoromethyl-phenoxymethyl)-pentylsulfanyl]-phenoxy}-acetic acid] | 0.02, 0.08, 0.04, 0.01, 0.36 nM (2×) [one cell]
3 | C=CCO[C@H](COc1ccc(C(F)(F)F)cc1)CSc1ccc(OCC(=O)O)c(C)c1 [Compound 20, (R)-{4-[2-Allyloxy-3-(4-trifluoromethyl-phenoxy)-propylsulfanyl]-2-methyl-phenoxy}-acetic acid] | 3.4 nM, 14.6 nM, 1.4 nM [one cell]
4 | COCO[C@H](COc1ccc(C(F)(F)F)cc1)CSc1ccc(OCC(=O)O)c(C)c1 [Compound 22, (R)-{4-[2-Methoxymethoxy-3-(4-trifluoromethyl-phenoxy)-propylsulfanyl]-2-methyl-phenoxy}-acetic acid] | 1.3, 2.6, 1.4, 2.1, 4.2, 2.3 nM [one cell]
5 | CCOC(CCc1ccc(C(F)(F)F)cc1)CSc1ccc(OCC(=O)O)c(C)c1 (centres unmarked) [Compound 38, {4-[2-Ethoxy-4-(4-trifluoromethyl-phenyl)-butylsulfanyl]-2-methyl-phenoxy}-acetic acid] | 6.9, 7.7, 19.7, 6.5, 4.6 nM [one cell]
